Results published in the GPR68 mutational scans of Howard et al. (2025).
Scores whose standard error is large were omitted. Not listed are two conditions whose scores span a narrow range. Read del as a deletion of the residues named and ins as an insertion between two positions. For some of these results: How much ogerin was present is not stated here.

B1: GPR68, Q15743 (parent)
chain: MGNITADNSSMSCTIDHTIHQTLAPVVYVTVLVVGFPANCLSLYFGYLQIKARNELGVYLCNLTVADLFYICSLPFWLQYVLQHDNWSHGDLSCQVCGILLYENIYISVGFLCCISVDRYLAVAHPFRFHQFRTLKAAVGVSVVIWAKELLTSIYFLMHEEVIEDENQHRVCFEHYPIQAWQRAINYYRFLVGFLFPICLLLASYQGILRAVRRSHGTQKSRKDQIQRLVLSTVVIFLACFLPYHVLLLVRSVWEASCDFAKGVFNAYHFSLLLTSFNCVADPVLYCFVSETTHRDLARLRGACLAFLTCSRTGRAREAYPLGAPEASGKSGAQGEEPELLTKLHPAFQTPNSPGSGGFPTGRLA

Assays:
[1] = variants of: B1; experiment: cAMP reporter score (Enrich2 score, wild type = 0); higher = more signal; HEK293T, FACS bins
[2] = variants of: B1; experiment: surface expression score (Enrich2 score, wild type = 0); higher = more signal; HEK293T, FACS bins

Variant | cAMP reporter score ([1]; pH 5.5) | cAMP reporter score ([1]; pH 6) | cAMP reporter score ([1]; pH 6, modulator: ogerin) | cAMP reporter score ([1]; pH 6.5, modulator: ogerin) | surface expression score [2]
Y155D | 0.87 | -0.635 | -1.05 | -0.59 | -1.7
Y155E | -0.105 | -1.01 | -1.44 | -1.25 | -2.72
Y155F | 0.756 |  | -0.213 | -0.495 | -0.112
Y155G | -0.259 | -1.12 | -1.57 | -1.09 | -0.838
Y155H | -0.779 | -0.313 | -0.392 | -0.632 | -0.35
Y155I | 0.498 | -1.56 | -0.415 |  | 1.26
Y155K | -0.617 |  | -1.09 | -0.415 | -1.78
Y155L | 0.339 | 0.06 | -0.492 | -0.567 | 0.283
Y155M | 0.463 | -0.052 | -0.352 | -1.27 | -0.735
Y155N | -0.391 | -1.35 | -0.707 |  | -0.29
Y155P | -0.393 |  | 0.772 | -0.623 | 
Y155Q | -1.48 | -0.394 |  | 1.63 | 
Y155R | -0.407 | -1.96 | -1.11 | -1.53 | -0.428
Y155S | -1.18 |  | -1.29 | -2.33 | -2.78
Y155T | -0.387 |  | -0.113 | -0.581 | 0.489
Y155W | -0.209 | -1.13 | -0.49 | -1.26 | -0.754
Y155_F156insG | -0.237 | -1.2 | -1.16 | -0.096 | 
Y155_L157del | -1.59 | -1.61 | -0.561 | -0.498 | -2.86
F156A | -0.867 | -0.907 |  | -1.8 | -0.48
F156C | -1.69 | -1.5 | -2.11 | -1.44 | 
F156D | -1.12 | -0.861 |  | -1.71 | -1.08
F156E | -2.25 |  |  | -0.693 | -1.73

Variant | cAMP reporter score ([1]; pH 5.5) | cAMP reporter score ([1]; pH 6) | cAMP reporter score ([1]; pH 6, modulator: ogerin) | cAMP reporter score ([1]; pH 6.5, modulator: ogerin) | surface expression score [2]
F156G | -2 | -1.02 | -1.4 | -1.24 | -2.21
F156H | -0.986 | -1.54 | -1.14 | -1.7 | -1.33
F156I | 1.75 | 1.17 | 0.408 | -0.899 | 2.09
F156K | -0.853 | -1 | -1.36 | -0.378 | 
F156L | -0.012 | -0.087 | -1.35 | -0.987 | 0.112
F156M | -0.789 | -1.18 |  | -0.664 | 0.721
F156P | -1.05 | 1.75 | -1.49 | 0.909 | -1.2
F156Q | -2.26 | -0.422 |  | -0.339 | -1.22
F156R | -0.318 | -0.973 | -1.39 | -1.65 | -1.35
F156S | -1.38 | -0.073 | -2.52 | -1.75 | -1.24
F156T | -1.05 | -0.673 | -1.77 | -1.08 | -0.821
F156V | -0.174 | -0.457 | -1.26 | -1.57 | -0.222
F156Y | 0.234 | 0.585 | -0.09 | -0.259 | -0.06
F156_L157del | 0.067 | 0.456 |  | -0.247 | -2.02
F156_L157insGS | -1.86 | -1.45 | -1.38 | -0.99 | -0.889
F156del | -0.176 | -0.024 | -1.61 | -0.474 | 0.135
L157_H159del | -1.32 | -0.725 | -1.09 | -1.25 | -1.51
L157_M158insGSG | -1.65 | 0.117 | -0.691 | -2.19 | -0.082
M158A | -0.491 | -0.101 | 0.11 | -0.57 | -0.455
M158C | -0.404 | -0.297 |  | -0.441 | 
M158D | -0.407 | -0.666 | -0.632 | -0.609 | -1.3
M158E | -0.028 |  |  | 0.259 | -1.59

Variant | cAMP reporter score ([1]; pH 5.5) | cAMP reporter score ([1]; pH 6) | cAMP reporter score ([1]; pH 6, modulator: ogerin) | cAMP reporter score ([1]; pH 6.5, modulator: ogerin) | surface expression score [2]
M158F | 0.417 | -0.763 | 1.11 | -1.73 | -0.236
M158G | 2.5 | -0.421 | -0.689 |  | 0.769
M158H | 0.604 | -0.45 | 0.21 | -0.11 | -0.134
M158I | -0.407 | 0.855 | 0.919 | -0.416 | -0.207
M158K | 0.621 | -0.265 | -0.208 | 0.81 | 
M158L | 0.172 | -0.834 | 0.398 | -0.102 | 0.403
M158N | 1.91 | 1.01 | 1.47 |  | 0.699
M158P | -0.363 | -1.74 | -1.76 | -1.27 | -2.46
M158Q | 0.101 | -0.415 | 0.064 | -0.26 | -0.12
M158R | -0.652 | -0.074 | -0.03 | -1.11 | 
M158S | 0.558 | 0.352 | -0.271 | -0.815 | 0.476
M158T | -1.28 | -1.54 | -1.31 | -1.7 | -1.18
M158V | -0.46 | -0.206 | -0.121 | -0.336 | -0.496
M158W | -0.483 | -0.93 | -0.428 | -0.869 | -0.977
M158Y | 1.2 | 0.412 | 1.2 | 1.15 | 0.196
M158_E160del | -1.65 | -1.47 | -2.59 | -1.79 | -0.218
M158_H159del | -0.876 | -1.21 | -1.78 | -1.37 | -1.27
M158_H159insGS | -0.656 | -1.47 | -1.07 | -0.964 | 0.66
M158_H159insGSG | -1.27 | -0.729 | -1.06 | -1.23 | 0.378
M158del | -0.537 |  | -1.63 |  | -0.954
H159A | -0.929 | -0.701 | -1.5 | -1.38 | -0.151
